# Assay results taken from a collection of fitness landscapes (doi:10.1126/science.1257360).
# The list shows a part of the results.
# B1: PhoQ; a variant is named by its letters at X, in order, P23837 (parent)
# chain: MKKLLRLFFPLSLRVRFLLATAAVVLVLSLAYGMVALIGYSVSFDKTTFRLLRGESNLFYTLAKWENNKLHVELPENIDKQSPTMTLIYDENGQLLWAQRDVPWLMKMIQPDWLKSNGFHEIEADVNDTSLLLSGDHSIQQQLQEVREDDDDAEMTHSVAVNVYPATSRMPKLTIVVVDTIPVELKSSYMVWSWFIYVLSANLLLVIPLLWVAAWWSLRPIEALAKEVRELEEHNRELLNPATTRELTSLVRNLNRLLKSERERYDKYRTTLTDLTHSLKTPLXXLQXXLRSLRSEKMSVSDAEPVMLEQISRISQQIGYYLHRASMRGGTLLSRELHPVAPLLDNLTSALNKVYQRKGVNISLDISPEISFVGEQNDFVEVMGNVLDNACKYCLEFVEISARQTDEHLYIVVEDDGPGIPLSKREVIFDRGQRVDTLRPGQGVGLAVAREITEQYEGKIVAGESMLGGARMEVIFGRQHSAPKDE
# Variants of: B1
# Assay: enrichment ratio after two sorts for PhoP signalling (ratio (wild type AVST 3.29)); higher = more functional
# Conditions: with PhoP (E. coli)
row,Variant,enrichment ratio
1,VQWE,≤ 0.25
2,ANFG,≤ 0.25
3,KIDK,≤ 0.25
4,KHGG,≤ 0.25
5,ETMI,≤ 0.25
6,TQNY,6.18
7,HQFK,≤ 0.25
8,DLNY,≤ 0.25
9,EFES,≤ 0.25
10,KFHL,≤ 0.25
11,TFLL,3.21
12,TWVV,≤ 0.25
13,RDQG,≤ 0.25
14,TTLE,8.73
15,SANP,≤ 0.25
16,WKME,≤ 0.25
17,PHIT,≤ 0.25
18,ARPV,≤ 0.25
19,FKCA,≤ 0.25
20,TGKE,≤ 0.25
21,KCTF,≤ 0.25
22,EHAT,≤ 0.25
23,FFCI,≤ 0.25
24,YVFG,≤ 0.25
25,REIS,≤ 0.25

row,Variant,enrichment ratio
1,MFFT,≤ 0.25
2,AQSY,12.7
3,GLDI,≤ 0.25
4,IRDD,≤ 0.25
5,MSFR,≤ 0.25
6,YNGS,≤ 0.25
7,VGAE,≤ 0.25
8,TSVI,3.09
9,WQCC,≤ 0.25
10,RFVF,≤ 0.25
11,WWVC,≤ 0.25
12,PMTG,≤ 0.25
13,IDTG,≤ 0.25
14,QVSW,≤ 0.25
15,HHRV,≤ 0.25
16,VWSN,≤ 0.25
17,KSWC,≤ 0.25
18,ERMA,≤ 0.25
19,FKHP,≤ 0.25
20,DFIP,≤ 0.25
21,TRVC,≤ 0.25
22,SERN,≤ 0.25
23,EYCG,≤ 0.25
24,LYIK,≤ 0.25
25,KGIM,≤ 0.25

row,Variant,enrichment ratio
1,LPRI,≤ 0.25
2,HVAA,≤ 0.25
3,NDMK,≤ 0.25
4,NVKY,≤ 0.25
5,DVTS,≤ 0.25
6,MSVQ,≤ 0.25
7,RDSR,≤ 0.25
8,FVEG,≤ 0.25
9,LSRQ,≤ 0.25
10,NEYQ,≤ 0.25
11,YTER,≤ 0.25
12,MEDA,≤ 0.25
13,KDLQ,≤ 0.25
14,LTNV,≤ 0.25
15,MLIS,≤ 0.25
16,MQIA,≤ 0.25
17,SVRK,≤ 0.25
18,RTKD,≤ 0.25
19,KTSR,≤ 0.25
20,LWLG,≤ 0.25
21,FMQA,≤ 0.25
22,FLPR,≤ 0.25
23,WYVY,≤ 0.25
24,DSLG,≤ 0.25
25,PKPE,≤ 0.25

row,Variant,enrichment ratio
1,GHPQ,≤ 0.25
2,PSID,≤ 0.25
3,RPSW,≤ 0.25
4,KERG,≤ 0.25
5,SEIR,0.869
6,GPSA,≤ 0.25
7,PYYL,≤ 0.25
8,NLVG,≤ 0.25
9,IEGN,≤ 0.25
10,LNQA,≤ 0.25
11,EAGA,≤ 0.25
12,SGTY,3.74
13,AYPY,≤ 0.25
14,DQMP,≤ 0.25
15,NGNP,≤ 0.25
16,MFCI,≤ 0.25
17,FIMI,≤ 0.25
18,IFMK,≤ 0.25
19,RDDY,≤ 0.25
20,TPIP,≤ 0.25
21,TEAT,17
22,FTMS,0.361
23,LVHA,≤ 0.25
24,YQSE,≤ 0.25
25,NMAS,≤ 0.25

row,Variant,enrichment ratio
1,ACRT,≤ 0.25
2,VMIF,≤ 0.25
3,NTSK,≤ 0.25
4,GWPM,≤ 0.25
5,RRKS,≤ 0.25
6,FMIM,≤ 0.25
7,LFAM,≤ 0.25
8,TGSL,16.8
9,NSEF,≤ 0.25
10,TWHY,≤ 0.25
11,VTMS,≤ 0.25
12,ICNG,≤ 0.25
13,KSEH,≤ 0.25
14,PLEN,≤ 0.25
15,AANG,≤ 0.25
16,FLHY,≤ 0.25
17,TCGH,23.5
18,LFTT,≤ 0.25
19,KMVH,≤ 0.25
20,EPEK,≤ 0.25
21,TEIL,4.44
22,FQYT,≤ 0.25
23,DMDT,≤ 0.25
24,FETP,≤ 0.25
25,NQSL,≤ 0.25

row,Variant,enrichment ratio
1,MAEF,≤ 0.25
2,NRCP,≤ 0.25
3,GKQQ,≤ 0.25
4,RFRG,≤ 0.25
5,AQPN,≤ 0.25
6,RGVP,≤ 0.25
7,HNRK,≤ 0.25
8,AQCL,16
9,PPTL,≤ 0.25
10,EITI,≤ 0.25
11,LLLM,≤ 0.25
12,VPRA,≤ 0.25
13,PKQC,≤ 0.25
14,FNLS,≤ 0.25
15,MKCI,≤ 0.25
16,KHCK,≤ 0.25
17,LDKW,≤ 0.25
18,CVSR,≤ 0.25
19,EFIK,≤ 0.25
20,YFPP,≤ 0.25
21,TFPS,≤ 0.25
22,AQNV,≤ 0.25
23,AMLY,2.86
24,ECIK,≤ 0.25
25,GQAE,≤ 0.25

row,Variant,enrichment ratio
1,AEFW,≤ 0.25
2,WPEA,≤ 0.25
3,RWHA,≤ 0.25
4,RPAG,≤ 0.25
5,FITT,≤ 0.25
6,HQSD,≤ 0.25
7,FCVI,≤ 0.25
8,HKGF,≤ 0.25
9,HQKL,≤ 0.25
10,FREP,≤ 0.25
11,GNPT,≤ 0.25
12,NQSF,≤ 0.25
13,EVRR,0.276
14,NRQG,≤ 0.25
15,SLFD,≤ 0.25
16,DSRF,≤ 0.25
17,HKDY,≤ 0.25
18,DRSL,≤ 0.25
19,LKQD,≤ 0.25
20,LQKA,≤ 0.25
21,YITW,≤ 0.25
22,TQTG,5.83
23,TRYL,≤ 0.25
24,WFCF,≤ 0.25
25,NKIA,≤ 0.25

row,Variant,enrichment ratio
1,GGGK,≤ 0.25
2,WGNK,≤ 0.25
3,SKRT,≤ 0.25
4,VHGC,≤ 0.25
5,QDYL,≤ 0.25
6,KFPL,≤ 0.25
7,IENF,≤ 0.25
8,YDLR,≤ 0.25
9,KDQV,≤ 0.25
10,ISVN,≤ 0.25
11,PSAN,≤ 0.25
12,TFHL,2.95
13,ENQG,≤ 0.25
14,GSHQ,≤ 0.25
15,HFWW,≤ 0.25
16,PGND,≤ 0.25
17,ELRL,≤ 0.25
18,EYSD,≤ 0.25
19,IAMK,≤ 0.25
20,GRFG,≤ 0.25
